Results taken from article PMC9911399, “Two distinct binding modes provide the RNA-binding protein RbFox with extraordinary sequence specificity”.
Residue numbers refer to the chain shown, from its start. The list shows a part of the results.

T1: RBFOX1 RRM (Homo sapiens, UniProt Q9NWB1 109-208)
T1 sequence: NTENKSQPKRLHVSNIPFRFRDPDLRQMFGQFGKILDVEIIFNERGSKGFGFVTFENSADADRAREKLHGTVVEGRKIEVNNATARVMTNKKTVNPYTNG

B1: GUGCAGU (DNA:RNA)
RNA: GGGAGACCGGAAUUCAGAUUGUCCGUGCAGUUUAAAUCCCGUCGUAGCCACCA
DNA 1: CAATCTGAATTCCGGTCTCCC
DNA 2: TGGTGGCTACGACGGGATT
B2: ACACAAG (DNA:RNA)
RNA: B1 RNA with G25A, U26C, G27A, G30A, U31G
DNA 1: CAATCTGAATTCCGGTCTCCC
DNA 2: TGGTGGCTACGACGGGATT
B3: CAGCUAA (DNA:RNA)
RNA: B1 RNA with G25C, U26A, A29U, G30A, U31A
DNA 1: CAATCTGAATTCCGGTCTCCC
DNA 2: TGGTGGCTACGACGGGATT
B4: UGCAAAU (DNA:RNA)
RNA: B1 RNA with G25U, U26G, G27C, C28A, G30A
DNA 1: CAATCTGAATTCCGGTCTCCC
DNA 2: TGGTGGCTACGACGGGATT
B5: GAUCCGC (DNA:RNA)
RNA: B1 RNA with U26A, G27U, A29C, U31C
DNA 1: CAATCTGAATTCCGGTCTCCC
DNA 2: TGGTGGCTACGACGGGATT
B6: AUAGCUC (DNA:RNA)
RNA: B1 RNA with G25A, G27A, C28G, A29C, G30U, U31C
DNA 1: CAATCTGAATTCCGGTCTCCC
DNA 2: TGGTGGCTACGACGGGATT
B7: CUAGUCU (DNA:RNA)
RNA: B1 RNA with G25C, G27A, C28G, A29U, G30C
DNA 1: CAATCTGAATTCCGGTCTCCC
DNA 2: TGGTGGCTACGACGGGATT
B8: ACCUCUC (DNA:RNA)
RNA: GGGAGACCGGAAUUCAGAUUGUCCACCUCUCUUAAAUCCCGUCGUAGCCACCA
DNA 1: CAATCTGAATTCCGGTCTCCC
DNA 2: TGGTGGCTACGACGGGATT
B9: GCGACGA (DNA:RNA)
RNA: B1 RNA with U26C, C28A, A29C, U31A
DNA 1: CAATCTGAATTCCGGTCTCCC
DNA 2: TGGTGGCTACGACGGGATT
B10: ACUGCAC (DNA:RNA)
RNA: B8 RNA with C27U, U28G, U30A
DNA 1: CAATCTGAATTCCGGTCTCCC
DNA 2: TGGTGGCTACGACGGGATT
B11: UCGAGCG (DNA:RNA)
RNA: B8 RNA with A25U, C27G, U28A, C29G, U30C, C31G
DNA 1: CAATCTGAATTCCGGTCTCCC
DNA 2: TGGTGGCTACGACGGGATT
B12: UUACUAC (DNA:RNA)
RNA: B1 RNA with G25U, G27A, A29U, G30A, U31C
DNA 1: CAATCTGAATTCCGGTCTCCC
DNA 2: TGGTGGCTACGACGGGATT
B13: AAUGUAC (DNA:RNA)
RNA: B8 RNA with C26A, C27U, U28G, C29U, U30A
DNA 1: CAATCTGAATTCCGGTCTCCC
DNA 2: TGGTGGCTACGACGGGATT
B14: GUGGGUA (DNA:RNA)
RNA: B1 RNA with C28G, A29G, G30U, U31A
DNA 1: CAATCTGAATTCCGGTCTCCC
DNA 2: TGGTGGCTACGACGGGATT
B15: AUAUCGA (DNA:RNA)
RNA: B8 RNA with C26U, C27A, U30G, C31A
DNA 1: CAATCTGAATTCCGGTCTCCC
DNA 2: TGGTGGCTACGACGGGATT
B16: CGCUACU (DNA:RNA)
RNA: B8 RNA with A25C, C26G, C29A, U30C, C31U
DNA 1: CAATCTGAATTCCGGTCTCCC
DNA 2: TGGTGGCTACGACGGGATT
B17: AAGCCGU (DNA:RNA)
RNA: B1 RNA with G25A, U26A, A29C
DNA 1: CAATCTGAATTCCGGTCTCCC
DNA 2: TGGTGGCTACGACGGGATT
B18: UUCUAAC (DNA:RNA)
RNA: B8 RNA with A25U, C26U, C29A, U30A
DNA 1: CAATCTGAATTCCGGTCTCCC
DNA 2: TGGTGGCTACGACGGGATT
B19: GCUGCUA (DNA:RNA)
RNA: B8 RNA with A25G, C27U, U28G, C31A
DNA 1: CAATCTGAATTCCGGTCTCCC
DNA 2: TGGTGGCTACGACGGGATT
B20: AUCGUCA (DNA:RNA)
RNA: B8 RNA with C26U, U28G, C29U, U30C, C31A
DNA 1: CAATCTGAATTCCGGTCTCCC
DNA 2: TGGTGGCTACGACGGGATT

The binders below were run against T1, RBFOX1 RRM (assay: EMSA; HiTS-Eq, 1 nM pool, 10 min; buffer printed only for the single-RNA assays: 10 mM Tris pH 7.5, 150 mM NaCl, 3.4 mM EDTA, 0.001% NP-40, 30 C). Settings: tags: His6 N-terminal (pET28a); label: 5' 32P.
Method in brief: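 Relative association constants, normalised to the cognate motif, were derived by comparing read counts of each RNA species with those of the control reaction. The RNA sequenced was the free fraction, separated by 8% native PAGE after a 10 min equilibration in 50 µL of 1 nM 5′-radiolabelled RNA (7 randomized nucleotides) with increasing concentrations of purified wild-type or mutant RbFox RRM.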

Row | Binder | binding signal
1 | B1 | 0.0179 KA relative to UGCAUGU
2 | B2 | 0.000734 KA relative to UGCAUGU
3 | B3 | 0.00179 KA relative to UGCAUGU
4 | B4 | 0.00953 KA relative to UGCAUGU
5 | B5 | 0.0132 KA relative to UGCAUGU
6 | B6 | 0.00406 KA relative to UGCAUGU
7 | B7 | 0.00711 KA relative to UGCAUGU
8 | B8 | 0.000784 KA relative to UGCAUGU
9 | B9 | 0.0141 KA relative to UGCAUGU
10 | B10 | 0.00599 KA relative to UGCAUGU
11 | B11 | 0.0144 KA relative to UGCAUGU
12 | B12 | 0.00404 KA relative to UGCAUGU
13 | B13 | 0.00459 KA relative to UGCAUGU
14 | B14 | 0.0204 KA relative to UGCAUGU
15 | B15 | 0.0043 KA relative to UGCAUGU
16 | B16 | 0.00873 KA relative to UGCAUGU
17 | B17 | 0.00255 KA relative to UGCAUGU
18 | B18 | 0.00535 KA relative to UGCAUGU
19 | B19 | 0.0167 KA relative to UGCAUGU
20 | B20 | 0.00413 KA relative to UGCAUGU
